Results: the supplement of paper PMC3334620
Over roughly 33,000 sequences, “E-score (-0.5 to 0.5)” has its median near -0.043; the highest 2% begin near 0.37. The list shows a part of the results.

The sequences below were run against T1, Upc2 (UniProt Q12151) (assay: PBM E-score (8-mer binding enrichment) (E-score (-0.5 to 0.5)); higher = stronger / more preferred TF binding; most listed sequences are background and not binding sites). Conditions: protein concentration: 200 nM; construct: GST-full length.
T1 sequence: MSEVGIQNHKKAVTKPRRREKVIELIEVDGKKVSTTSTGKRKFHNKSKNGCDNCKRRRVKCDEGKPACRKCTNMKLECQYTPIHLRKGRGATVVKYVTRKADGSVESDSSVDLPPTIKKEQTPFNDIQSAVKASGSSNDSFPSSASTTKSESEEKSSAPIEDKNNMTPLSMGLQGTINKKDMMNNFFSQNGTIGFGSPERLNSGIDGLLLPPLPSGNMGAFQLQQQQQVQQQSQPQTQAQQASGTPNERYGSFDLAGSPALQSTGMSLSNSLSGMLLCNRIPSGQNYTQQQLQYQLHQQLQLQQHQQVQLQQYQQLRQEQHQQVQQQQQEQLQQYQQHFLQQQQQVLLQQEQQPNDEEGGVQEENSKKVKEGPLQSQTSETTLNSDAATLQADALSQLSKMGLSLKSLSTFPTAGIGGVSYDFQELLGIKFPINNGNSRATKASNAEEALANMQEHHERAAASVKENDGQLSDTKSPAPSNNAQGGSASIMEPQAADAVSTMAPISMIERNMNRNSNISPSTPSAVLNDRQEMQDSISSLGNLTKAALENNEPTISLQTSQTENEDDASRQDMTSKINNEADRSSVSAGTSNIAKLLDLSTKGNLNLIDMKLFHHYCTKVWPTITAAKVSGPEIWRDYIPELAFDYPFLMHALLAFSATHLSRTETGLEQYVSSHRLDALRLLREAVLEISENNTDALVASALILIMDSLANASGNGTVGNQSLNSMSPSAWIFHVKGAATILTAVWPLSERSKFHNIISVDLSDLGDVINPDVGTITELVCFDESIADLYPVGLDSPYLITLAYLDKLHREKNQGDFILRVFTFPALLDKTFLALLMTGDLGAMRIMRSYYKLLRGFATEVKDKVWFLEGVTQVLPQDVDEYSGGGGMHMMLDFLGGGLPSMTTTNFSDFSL
In short: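 GST-tagged yeast TFs (full-length or DNA-binding domain) were made by PURExpress in vitro transcription/translation and applied at about 100-200 nM to universal all-10-mer Agilent arrays. The arrays were made double-stranded by primer extension, on fresh or once-stripped slides. Bound protein was detected with fluorescent anti-GST, and scans were normalised with masliner. Each ungapped eight-base word, pooled with its reverse complement, received an E-score (modified Wilcoxon-Mann-Whitney statistic) from the Universal PBM Analysis Suite.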

Row | Sequence | PBM E-score
1 | AGTGAAGG | -0.178
2 | CCACCAAA | -0.102
3 | CGTTTACA | 0.441
4 | CCATCTAG | -0.18
5 | GCTGCTAC | 0.188
6 | GATACTGA | 0.0533
7 | CCCATTAC | -0.0721
8 | GGGCCGAC | -0.142
9 | ACTCGGCG | 0.192
10 | CTTGCTAA | -0.215
11 | CATTCAGG | -0.26
12 | AATGTGGA | -0.0568
13 | AGAGCGGC | -0.155
14 | ATATGATC | 0.0198
15 | ATTGCCAA | -0.0652
16 | GTGAAGCA | -0.175
17 | GCCAAAGA | -0.17
18 | ACAGGCAA | 0.0259
19 | CATAGGGC | -0.158
20 | GACGGGTA | -0.0987
21 | ATGACTAA | -0.0336
22 | CCTGGGGA | -0.288
23 | CGGTGTGA | -0.00752
24 | GAATGCGC | 0.0704
25 | GTAGACAC | -0.0415

Row | Sequence | PBM E-score
26 | ACCGATGC | 0.0858
27 | CAAGAGCG | -0.041
28 | CTCCTCAG | -0.0401
29 | TCCGTCGA | -0.00761
30 | GTCATCGA | -0.034
31 | TCGAAACA | -0.00849
32 | CTTCCAGC | -0.303
33 | CTATAAGA | 0.247
34 | GCCCTTAC | -0.112
35 | ACCACCAG | -0.0982
36 | CAGGGGCC | -0.296
37 | ACTCGAGA | 0.0109
38 | GCGGGCAC | -0.219
39 | AGAGGTCG | 0.117
40 | AGCTTTTC | -0.0374
41 | CTTGTAAC | 0.132
42 | AGGTTACG | 0.221
43 | CTCGAGTA | 0.0834
44 | ATGCTTTA | 0.0363
45 | TCCTGCGA | -0.0343
46 | GGCGCGCA | -0.0733
47 | CGGAGGTA | -0.0859
48 | CTTTTGGC | 0.0155
49 | AATGCAAC | 0.155
50 | TAATTCGA | -0.00307

Row | Sequence | PBM E-score
51 | ATACTTAA | 0.0851
52 | CTGACATC | -0.151
53 | ATTTCAGC | -0.221
54 | CCGCAGTA | -0.174
55 | ACATTAGT | -0.0556
56 | GTAAGCAA | 0.025
57 | TACGAGGA | 0.464
58 | AATACTTA | 0.0146
59 | ACCTGGGA | -0.245
60 | CAGTTTAA | 0.0775
61 | AAGTGGTC | -0.0902
62 | CTGCCATC | -0.0599
63 | GAGGTACC | -0.0544
64 | CGCATCTA | 0.134
65 | CATGTCCC | -0.0585
66 | AAATTATG | -0.0769
67 | ACCCGCTA | -0.161
68 | AGAAGTAA | -0.109
69 | ATTCTGTA | 0.0418
70 | CGACACCC | -0.0363
71 | CGGATTGA | -0.0804
72 | AACGTGAC | -0.00267
73 | CGGTAGAA | -0.172
74 | ATTGACGG | 0.0345
75 | CCGTTAAG | 0.309

Row | Sequence | PBM E-score
76 | GATCAGCC | -0.29
77 | TGCAATAA | -0.0238
78 | AATCAGTG | -0.167
79 | AATGATGC | -0.00917
80 | AGCAAAAC | -0.0596
81 | AGTTTGGG | -0.195
82 | AGCGGATC | 0.0526
83 | AGCTATCA | -0.0312
84 | GTCCAGAC | -0.0537
85 | CAGGGTAG | -0.144
86 | AGTCTACG | 0.158
87 | AGCAACAC | 0.00868
88 | GGTCCACC | -0.188
89 | GTAAGCAC | -0.0922
90 | TACAAGAA | 0.0389
91 | CCGGGCTA | -0.18
92 | CTAGTCAC | -0.101
93 | GAAAGAAA | 0.103
94 | GCTACTGA | -0.101
95 | CAGTGACC | -0.27
96 | CCTGCAAA | -0.0886
97 | AACGGTAA | 0.278
98 | ACTCCCGA | -0.014
99 | GTAGGGTA | 0.00363
100 | AAGGTAGA | -0.111

Row | Sequence | PBM E-score
101 | AGATTTAA | -0.0243
102 | CACAGGTG | -0.201
103 | CTGCCCAA | -0.292
104 | GTTGACAA | 0.1
105 | AACTACCC | -0.259
106 | ATACGTGC | 0.318
107 | CTCGAATA | 0.206
108 | GAGTTGCA | -0.261
109 | CCGCACAA | 0.0872
110 | ATGCACCG | -0.146
111 | AAAGAATT | -0.0689
112 | CTAAGGCA | -0.252
113 | ACACGCGC | -0.0822
114 | AATCGTAG | 0.241
115 | CGTCCCAC | -0.0799
116 | CCTCGCTC | 0.31
117 | TGGTTCAA | 0.018
118 | ACGTGACT | -0.0376
119 | CCTAGCAA | -0.244
120 | GACACGAC | 0.16
121 | CAAAGAGG | -0.306
122 | GATTCATA | -0.0732
123 | AATCGACT | -0.0529
124 | CAATAGCC | -0.128
125 | CTAGGAGC | -0.192

Row | Sequence | PBM E-score
126 | GCCCCCAA | -0.238
127 | ACATTGGT | -0.232
128 | GGTAGAAC | -0.0156
129 | ACTATAAG | 0.219
130 | GAGGTGGC | -0.22
131 | CGACCGCA | 0.174
132 | AATGACTA | -0.0693
133 | AAGATGAT | -0.0179
134 | ATGTGGGG | -0.142
135 | AGCTGTAG | -0.2
136 | CTCCCGTA | 0.333
137 | AGCCGAAA | -0.0413
138 | CGCTGACA | -0.232
139 | GGCTTGCA | -0.13
140 | GTGCTAAC | -0.0899
141 | AATTTACC | 0.117
142 | TGGATTAA | -0.162
143 | ACATAGAG | -0.149
144 | CAGGAAGA | -0.252
145 | ACGTCTGA | 0.0587
146 | ACAATGCT | -0.119
147 | CTGACACC | -0.236
148 | ACGGACCA | 0.213
149 | ATCATATA | 0.0507
150 | CCACAATC | -0.132

Row | Sequence | PBM E-score
151 | CTCCTATA | -0.0688
152 | CGTGCCTC | 0.0474
153 | GAACTGAA | 0.179
154 | TAAGGACA | 0.0801
155 | GCACTTAC | -0.0833
156 | AGTCCGGC | -0.204
157 | CCAACTGA | -0.0746
158 | CGTCATAA | 0.0582
159 | AAACATGT | 0.0475
160 | AAATCCAC | -0.112
161 | GTTGCACA | -0.0557
162 | CAAAATTA | 0.0503
163 | CCCCAAGG | -0.378
164 | CTGCTTCA | -0.325
165 | ACGGAATA | 0.0564
166 | ACGCCGGA | 0.0844
167 | CCCGTCGC | 0.0724
168 | AAACACCC | -0.0301
169 | ATTCACAG | -0.0954
170 | ATGAGAGG | -0.213
171 | AGCCCGTA | 0.321
172 | ACGAAGAA | 0.343
